Assay results reported in ChEMBL document CHEMBL4888484, “Replenishing the malaria drug discovery pipeline: Screening and hit evaluation of the MMV Hit Generation Library 1 (HGL1) against asexual blood stage Plasmodium falciparum ,using a nano luciferase reporter read-out” (2022).
Screen size: about 150,000 compounds; about 540 (0.36%) showed an effect of 50% or more. Some of the results follow. Where a SMILES comes first, the peptide text is derived from it. The star is where a group is joined. Cbz = O=C(OCc1ccccc1)*; OtBu = CC(C)(C)O*

What follows are molecules tested on Plasmodium falciparum (assay: Primary screen in NF54 nanoGlo assay, in single point, at 2uM, 72h; a lower Z score goes with more inhibition). Conditions: timepoint 72 hour.
Type: functional, Erythrocyte

Compound	% Inhibition [%]	Z score
COc1cc(-c2cc(C)cc(CN3CCCC3)c2)cc(OC)c1OC	5	-0.92
O=C(c1ccc(-n2cnnn2)cc1)N1CCCCCCC1	-21	2.77
CNC(=O)N1CCC[C@H](CC(F)(F)F)C1	-5	0.56
Cc1cc(F)ccc1-n1ccc(NC(=O)NC(C)C(C)CO)n1 (stereo not drawn)	-7	0.87
CC(C)CC(NC(=O)C(Cc1ccccc1)NC(=O)C1CCCN1C(=O)OCc1ccccc1)C(=O)OC(C)(C)C (stereo not drawn) (Cbz-Pro-Phe-Leu-OtBu; configuration not given here)	-1	0.11
Cn1ccc2c(NC(=O)CC[C@@H]3N=C(O)N(CCc4ccccc4)C3=O)cccc21	-10	1.33
Cc1cc(C)cc(NC(=O)Cc2nnc(-c3ccsc3)o2)c1	-1	0.1
CN(C(=O)c1c[nH]c(=O)c(Cl)c1)C(C1CC1)C1CC1	-1	0.17
CCC(=O)N(CCN1CCOCC1)Cc1nccn1Cc1ccc(Cl)cc1Cl	5	-0.92
COc1ccc(-c2nccn3cc(C(=O)N4CCN(CC(C)C)CC4)nc23)cc1	29	-3.31
Cc1c(CC(=O)N[C@H](C(N)=O)C(C)C)c2c(n1Cc1ccccc1)CCCC2=O	5	-0.48
CCC(Cc1ccc(Cl)cc1Cl)NC(=O)C(C)NC(N)=O (stereo not drawn)	5	-0.59
CC1(C)CNc2ccc(S(=O)(=O)N3CCOCC3)cc21	-2	0.25
CCCc1cc(C(=O)N(CC)Cc2ccc(C)o2)n(C)n1	8	-1.17
CCc1ocnc1-c1nc(Cc2ccccc2OC)n[nH]1	-10	1.38
CCN(CC)C(=O)C1(O)C2C=CC=CC2=NC(=O)N1c1ccccc1 (stereo not drawn)	-25	2.95
C[C@H]1CN(C(=O)Cc2cncs2)CCS1(=O)=O	-4	0.76
C1CCn2c(nnc2CNC2C3CCOC3C23CCCC3)C1 (stereo not drawn)	-2	0.25
FC(F)(F)c1ccccc1CC[C@H]1CCCNC1	-9	1.1
CS(=O)(=O)N[C@H]1[C@H](NC(=O)c2cc3sccc3[nH]2)[C@@H]2CCO[C@@H]21	3	-0.5
CN(CC(=O)Nc1cnn(C)c1)Cc1cc2cc(F)ccc2[nH]1	0	-0.01

Compound	% Inhibition [%]	Z score
CC1CC1C(=O)N(C1CCCC1)C1CC1 (stereo not drawn)	-14	1.52
O=C(Nc1ncccc1O)[C@H]1C[C@@H]1C(F)F	-9	1.76
CC(=O)N1CCCN(C(=O)c2cccc(-c3nc(C)cc(C)n3)c2)CC1	-11	1.06
O=S1(=O)CCN(c2nc(C3CCCC3)ns2)CCC12CCC2	-8	1.3
Cc1ccc(OCCN2C(=O)NC3(CCCC3)C2=O)cc1	-12	1.95
CN(Cc1cccnc1)C(=O)CCC[C@@H]1[C@H]2CCCN3CCC[C@@H](CN1Cc1cccnc1)[C@@H]23	-4	0.64
C=C(C)[C@@H]1Cc2nc(NC(=O)c3ccccc3)nc(C)c2C1	-14	1.8
O=C1NCC[C@@H]1CCOc1cc(F)cc(F)c1	-3	0.64
CC(C)c1ccc(NC(=O)N2CCN(C(C(=O)N3CCCCC3C)C3CCCC3)CC2)cc1 (stereo not drawn)	5	-0.72
COc1ccc(NC(=O)c2ccc(C)nc2C2CCN(C(=O)c3cccc(Br)c3)CC2)cc1	5	-0.54
CC(=O)N1Cc2ccccc2C[C@H]1C(=O)N1CCn2nc(C)nc2C1	-14	2.66
COc1ccc([C@](O)(CCN2CCCCC2)C2CCCCC2)cc1	-11	2.06
CN(CC1(O)CCCCCC1)C(=O)c1ccc(CCC(F)(F)F)cc1	2	-0.21
CC(C)N(C)S(=O)(=O)N1CCC(OCc2ccc(F)cc2)CC1	-4	0.53
COc1ccc2c(c1)C(N1CCCN(C(=O)C3CCCCC3)CC1)=Nc1cc(C(F)(F)F)ccc1O2	11	-1.35
CN(c1ccc(C(N)=O)cc1)S(=O)(=O)c1ccc2c(c1)CCC2	-5	0.73
CC(=O)Nc1ccc(CCc2nc3cc(C(=O)N4CCC(C)CC4)ccc3[nH]2)cc1	6	-0.73
Cc1ncc(CNC(=O)N(C)Cc2c(C)noc2C)s1	-3	0.39
Cc1cc(-c2nnn(CC(=O)N3CCNC3=O)n2)ccc1F	-2	0.25
CC1C(C)S(=O)(=O)CCN1Cc1cncs1 (stereo not drawn)	5	-0.7
Cc1cc(S(=O)(=O)N2CCC3(CC2)NCCCN=C3NC2CCCC2)ccc1F	-14	1.75

Compound	% Inhibition [%]	Z score
CC(=O)NCCc1csc(C2CCN(C(=O)c3ccc(F)cc3)CC2)n1	0	0
N[C@H]1CN(C(=O)c2ccc3c(c2)OCCCO3)C[C@@H]1c1ccccc1F	-3	0.65
CC(C)C[C@@H]1NC2(CCN(S(=O)(=O)c3cccc(Cl)c3Cl)CC2)N(C2CC2)C1=O	-9	1.24
CCOC(=O)C(=O)Nc1ccc(Cl)c(C(F)(F)F)c1	-28	3.27
Cc1cccc(C(=O)NCCOc2ccccc2F)n1	-4	0.75
C=CCC[C@H](O)CN(Cc1ccco1)Cc1c(C)nn(-c2ccccc2)c1Oc1ccc(F)cc1F	-7	1.18
Fc1cccc(-c2nc(-c3cnccn3)no2)c1	6	-0.66
COc1ccc(NC(=O)CCc2c(-c3ccc(C)cc3)nc3ccc(-c4cccc(C)c4)cn23)cc1	6	-0.91
Cc1cc(C)cc(N[C@@H](C)C(=O)Nc2nnc(C)s2)c1	-29	3.42
CCCCN(CC(N)=O)CC(=O)N1CCO[C@@H](C)C1	0	-0.05
C[C@H]1CCS(=O)(=O)CCN1Cc1ccc(-n2cccn2)cc1	-10	1.84
Cc1cc(C)n(-c2ccc(Cn3cnc4c(c3=O)CCC4)cc2)n1	-8	1.2
CC(C)C[C@H](C)OC(=O)N(C)Cc1nnc2n1CCNC2=O	-19	3
CCO[C@@H](C)c1nc(CN(C)C(=O)c2ccc(C)o2)cs1	-5	0.85
CCCC(=O)Nc1nc2ncccc2cc1C(=O)OCC	-5	0.44
Cc1cc(Br)oc1C(=O)N1CC[C@@](F)(C(=O)O)C1	-6	0.76
CN(C)CC[C@@H](c1ccccc1)n1ccnc1-c1ccco1	4	-0.58
Cc1ncc(C(=O)N2CCC(Cc3nccn3C)CC2)c(C)n1	-3	0.61
O=C(NC(N1CCCC1=O)(C(F)(F)F)C(F)(F)F)c1ccco1	41	-4.68
O=C1CN(C(=O)Nc2ccc3c(c2)OC2(CCCCC2)O3)CCN1	-3	0.34
Cc1noc(C)c1CN(C)Cc1ncc(Cl)n1C	-2	0.21

Compound	% Inhibition [%]	Z score
NC(=O)C(NC1CCc2cc(F)ccc21)c1ccccc1 (stereo not drawn)	-11	2.12
CCn1nccc1C(=O)N[C@H]1CCN(c2ncnc3c2CCC3)C1	-10	1.74
COc1ccc(C)cc1S(=O)(=O)NC1Cc2ccccc2C1O (stereo not drawn)	-12	1.02
Clc1ccc(CN2CCN(c3nc4ccccc4c4nnc(-c5ccco5)n34)CC2)cc1	13	-1.39
Cc1cc(C)nc(/N=C(/NC(=O)c2ccccc2)N2CCC(C(N)=O)CC2)n1	-8	1.13
N#Cc1cnc2ccc(F)cc2c1N1CCC(C(=O)Nc2ccc(Cl)cc2)CC1	-8	1.17
COc1ccc(OC)c(S(=O)(=O)N2C[C@H]3CCCC(=O)N[C@H]3C2)c1	36	-0.83
CCN1CCN(C2(C(=O)N3CCC(COC)CC3)Cc3ccccc3C2)CC1	-5	0.79
Cc1nn(CC(=O)N2CCc3ncccc3C2)c(=O)n1CCc1ccccc1	-4	0.68
CC1(C)COCN1C(=O)c1ccc(C#N)cc1	-5	0.61
COC[C@H](NC(=O)NCCN1CCN(C)C(C)(C)C1)C1CC1	6	-0.82
O=C(Cn1nnc2ccccc21)c1ccccc1	-12	1.78
COc1ccc2c(c1)CCc1c(C(=O)Nc3ccc4nc(NS(C)(=O)=O)sc4c3)n[nH]c1-2	1	-0.06
Cc1cc(N[C@H](c2nc(C)cs2)C2CC2)nc(C)n1	-2	0.25
COCC1(CNS(=O)(=O)c2ccc(NS(=O)(=O)N(C)C)cc2)CCC1	-3	0.34
O=C(N[C@H]1CCc2nccn2C1)c1cc2ccccc2o1	4	-0.58
CCc1sc(C(=O)N[C@H](CO)CN2CCCC2)cc1C	-8	0.91
Cc1c(CN2CCC([C@H](Cc3ccccc3Cl)N(C)C(=O)c3ccco3)CC2)cnn1C	-1	0.14
O=C1c2c(c3cc(Cl)ccc3n2Cc2ccccc2)CCC1(Cc1ccccc1)Cc1ccccc1	-26	3.37
Cc1c(C(=O)NC[C@@H]2CC[C@H](C)N2C)nnn1C(C)C	3	-0.61
CCc1nc(-c2cc(C(F)F)n[nH]2)n(Cc2ccccc2Cl)n1	-9	1.82
